Data taken from PubChem BioAssay AID2107 (National Center for Advancing Translational Sciences (NCATS), 2009).
The whole screen tested about 240,000 compounds, of which about 20 (0.008%) were called active. Inconclusive results, whose numbers are uncertain, are shown with a selection of clear calls. Calls follow the shape of the dose curve; as a rule, active = well fitted inhibition curve with a large enough effect; inconclusive = small, poorly fitted or top-dose-only effect, or effect the other way; inactive = flat fitted curve, though single readings scatter. Potencies of inconclusive entries are left out as doubtful fits.

Target: Alpha-galactosidase A (Homo sapiens) (UniProt P06280)
Experiment: qHTS Assay for Inhibitors and Activators of Human alpha-Galactosidase From Spleen Homogenate
Conditions: 4MU-alpha-Gal fluorescence, 40 min; series mostly up to 80 µM
Outline: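 Fluorogenic readout (Ex 365/Em 440 nm) of 4-methylumbelliferone released from 1 mM 4-MU-alpha-galactoside by spleen homogenate, 40 min at 37C, pH 5.0. Data normalized to no-enzyme and enzyme controls; Hill-equation AC50 from compound titrations.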
Potency is read from the fitted curve at half-maximal effect; tags tell the direction and shape of the fitted curve.

Chain of UniProt P06280 (P06280 whole entry, looked up): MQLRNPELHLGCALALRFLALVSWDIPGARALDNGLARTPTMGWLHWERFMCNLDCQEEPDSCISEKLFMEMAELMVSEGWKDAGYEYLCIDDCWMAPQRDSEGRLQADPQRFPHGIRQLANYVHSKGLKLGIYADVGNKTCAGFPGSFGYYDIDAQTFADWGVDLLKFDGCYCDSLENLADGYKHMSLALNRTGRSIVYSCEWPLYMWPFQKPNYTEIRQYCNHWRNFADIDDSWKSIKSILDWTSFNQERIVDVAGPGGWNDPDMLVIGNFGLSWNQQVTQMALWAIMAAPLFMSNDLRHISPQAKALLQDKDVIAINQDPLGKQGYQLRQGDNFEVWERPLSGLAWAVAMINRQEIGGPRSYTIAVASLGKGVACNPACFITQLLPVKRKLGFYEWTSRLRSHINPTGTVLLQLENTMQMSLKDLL

| SMILES | Potency |
| --- | --- |
| CCN(c1ccccc1)S(=O)(=O)c1cc(C(=O)Oc2ccc3c(C)cc(=O)oc3c2)ccc1C | inconclusive [activator, partial curve] |
| CC(Nc1nc(N2CCOCC2)nc2ccccc12)c1ccccc1 (stereo not given) | inconclusive [activator, single point] |
| Cc1ccccc1NC(=S)NC1CCN(Cc2ccccc2)CC1 | inactive |
| COCCCn1c(=NC(=O)c2ccccc2)c(C#N)cc2c(=O)n3cccc(C)c3nc21 | inconclusive [activator, partial curve] |
| CCCCNC(=O)CCC(=O)Nc1ccc2nc(N3CCC(C)CC3)cc(C)c2c1 | inconclusive [activator, partial curve, poor fit] |
| CCCCCCCCCCCCCCCCCC(=O)OC(CC(=O)O)C[N+](C)(C)C (stereo not given) | inconclusive [inhibitor, partial curve] |
| CCOc1ccccc1OCc1nn2c(-c3ccc(C)cc3)nnc2s1 | inconclusive [inhibitor, single point] |
| CCOC(=O)c1cc2c(=O)n3ccccc3nc2n(CC2CCCO2)c1=NC(=O)/C=C/c1ccccc1 (stereo not given) | inconclusive [activator, partial curve] |
| O=C(CCCOc1ccc(Cl)cc1Cl)N/N=C/c1ccco1 | inconclusive [inhibitor, single point] |
| CCOC(=O)SC1=N/C(=C\c2ccc(N(C)C)cc2)C(=O)S1 | inactive |
| CCC1OC2(C)OC(=N)C1(C#N)C(C#N)(C#N)C2c1ccccc1 (stereo not given) | inconclusive [activator, single point] |
| CCc1ccc(CC2S/C(=C(\C#N)C(C)=O)NC2=O)cc1 (stereo not given) | inconclusive [inhibitor, single point] |
| Cc1cccc(-n2c3nc(=O)[nH]c(=O)c-3cc3c(C)nn(-c4ccccc4)c32)c1 | inconclusive [activator, single point] |
| FC(F)(F)Oc1ccc(NC(=S)Nc2ccccc2N2CCOCC2)cc1 | inconclusive [inhibitor, full curve, poor fit] |
| NC(=O)CNC(=O)[C@@H]1CC2(CC(c3ccc(Cl)cc3)=NO2)CN1C(=O)c1ccccc1 (stereo not given in full) | inactive |
| Nc1c2ccccc2nc2ccccc12 (tested in a mixture with another compound) | inconclusive [activator, partial curve] |
| O=C(NC1CCCCCCC1)C1c2ccccc2C(=O)N1Cc1cccs1 (stereo not given) | inactive |
| N=c1oc2cc(O)ccc2cc1C(=O)Nc1ccccn1 | inconclusive [activator, partial curve] |
| N#Cc1ccc(CN2CCC3(CCNCC3)CC2)cc1 | inactive |
| O=C1COCCN1 | inactive |
| CCOP(=O)(OCC)c1nc(/C=C/c2ccccc2)oc1NCc1ccc(OC)cc1 | inconclusive [activator, partial curve] |
| COc1ccccc1-c1cc(C(F)(F)F)c(C#N)c(=O)[nH]1 | inconclusive [activator, single point] |
| Cc1cc(=O)oc2cc(NS(=O)(=O)c3ccccc3)ccc12 | inconclusive [activator, partial curve] |

| SMILES | Potency |
| --- | --- |
| Cc1cc2c(cc1C)N(C(=O)CN1C(=O)c3ccccc3C1=O)C(C)(C)c1ssc(=S)c1-2 | inconclusive [activator, single point] |
| O=C(Nc1ccccc1)N1CCN(c2ccc(F)cc2)CC1 | inconclusive [inhibitor, single point] |
| CC(=O)c1c(O)c2ccccc2n(C)c1=O | inactive |
| CCn1c(CSc2ncccn2)nnc1SCC(=O)N1CCc2ccccc21 | inactive |
| Nc1ccc(-c2nc3c(Cl)c(N)ccc3[nH]2)cc1 | inconclusive [activator, single point] |
| COc1cc(OC)cc(C(=O)NCC(=O)OCC(=O)NC(C)(C)C)c1 | inconclusive [inhibitor, single point] |
| O=c1oc2cc(O)ccc2c2oc3cc(O)ccc3c12 | inconclusive [activator, partial curve] |
| CCOc1ccc(Cn2c(=O)sc3ccccc32)cc1OC | inconclusive [inhibitor, partial curve, poor fit] |
| COc1cc2cc3c4c(cc(OC)c(OC)c4c2cc1OC)CCN3C | inconclusive [activator, partial curve] |
| CCCCCCC1(C)NC(=S)N(c2ccccc2)N1 (stereo not given) | inactive |
| CC(C)Nc1nc(NC(C)C)nc(N(C)N)n1 | inactive |
| CC1(C)CC(=O)c2cc(OCC(=O)O)ccc2O1 | inconclusive [activator, single point] |
| CC(=O)Oc1ccc2cc(-c3nc4ccccc4n3C)c(=O)oc2c1 | inconclusive [activator, partial curve] |
| C/C(=N/NC(=O)c1ccccc1)C(=O)O | inconclusive [activator, single point] |
| O=C(/C=C/c1ccccc1Cl)NCc1ccco1 | inactive |
| CCNc1ncc2nc(-c3cccc(C#N)c3)c(=O)n(CCC#N)c2n1 | inconclusive [activator, partial curve, poor fit] |
| C[C@H]1[C@H](C)CC[C@]2(C=O)CC[C@]3(C)C(=CC[C@@H]4[C@@]5(C)C[C@@H](O)[C@H](O)[C@@](C)(CO)[C@@H]5CC[C@]43C)[C@H]12 | inactive |
| CCN=c1scc(C)n1/N=C/c1cc(Br)c(O)c(Br)c1 | inactive |
| CC1C2(C)OCC(C#N)(C(=N)O2)C1(C#N)C#N (stereo not given) | inconclusive [activator, partial curve] |
| CCNc1ncc2nc(C)c(=O)n(C[C@H]3CCCO3)c2n1 | inconclusive [activator, single point] |
| CC/C=C\C/C=C\C/C=C\C/C=C\C/C=C\C/C=C\CCC(=O)NCCCC(=O)O | inactive |
| CCOc1cc(C2c3c(n[nH]c3C)C(=O)N2c2ccc(Br)cc2)ccc1O (stereo not given) | inconclusive [inhibitor, partial curve] |
